# From the supplement of paper PMC10037445
# Over roughly 2,900 compounds, “IRF Lucia reporter activity, fold change vs agonist alone” has its median near 0.9; the highest 2% begin near 2.8. Some of the results follow.
# Columns and labels:
# RAW-Dual [1] = assay: IRF Lucia reporter activity, fold change vs agonist alone; cytotoxicity flag (confluency mask): not cytotoxic; higher = enhanced IRF activity
# How it was run: (§1)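 Supernatant from RAW-Dual macrophages was read after 20 hours for IRF by QuantiLuc luminescence and for NF-κB by QuantiBlue absorbance at 620 nm. The cells (50,000 cells/well in DMEM, 384-well plates, 37 °C, 5% CO2) had received 50 nL of library stock by pin tool and, 1 h later, a PRR agonist. Reporter activity is expressed relative to agonist-alone wells as fold change, and wells were flagged cytotoxic if IncuCyte confluency was under 70% of agonist controls in both mask sets.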
# RAW-Dual [2] = assay: IRF Lucia reporter activity, fold change vs agonist alone; higher = enhanced IRF activity; settings: agonist: MPLA (TLR4) […]
# How it was run: as §1
# RAW-Dual [3] = assay: IRF Lucia reporter activity, fold change vs agonist alone; cytotoxicity flag (confluency mask): cytotoxic (confluency <70% of control); higher = enhanced IRF activity
# How it was run: as §1
# [4] = agonist: 3'3'-cGAMP (STING) 10 ug/mL
# [5] = library stock concentration (final ~1000-fold dilution): 10 mM, cytotoxicity flag (confluency mask): not cytotoxic
compound,measurement,setting,value
O=c1cc(-c2ccccc2)oc2c1ccc1ccccc12 (library stock concentration (final ~1000-fold dilution): 10 mM),IRF Lucia reporter activity,RAW-Dual [1]; [4],0.809
same,IRF Lucia reporter activity,RAW-Dual [1]; agonist: LPS (TLR4) 0.1 ug/mL,0.537
O=c1cc(-c2ccccc2)oc2c1ccc1ccccc12,IRF Lucia reporter activity,RAW-Dual [2]; [5],0.951
CCN(CC)CCCCNc1ncc2cc(-c3cc(OC)cc(OC)c3)c(NC(=O)NC(C)(C)C)nc2n1 (library stock concentration (final ~1000-fold dilution): 10 mM),IRF Lucia reporter activity,RAW-Dual [3]; [4],0.883
same,IRF Lucia reporter activity,RAW-Dual [3]; agonist: LPS (TLR4) 0.1 ug/mL,0.0381
CCN(CC)CCCCNc1ncc2cc(-c3cc(OC)cc(OC)c3)c(NC(=O)NC(C)(C)C)nc2n1,IRF Lucia reporter activity,"RAW-Dual [2]; library stock concentration (final ~1000-fold dilution): 10 mM, cytotoxicity flag (confluency mask): cytotoxic (confluency <70% of control)",1.55
Cc1ccc(Oc2ccnc3cc(-c4cnn(C5CCNCC5)c4)ccc23)cc1 (library stock concentration (final ~1000-fold dilution): 10 mM),IRF Lucia reporter activity,RAW-Dual [3]; [4],0.0554
same,IRF Lucia reporter activity,RAW-Dual [3]; agonist: LPS (TLR4) 0.1 ug/mL,0.134
C=CS(=O)(=O)NC1CCN(C(=O)CNc2cc(I)c(Cl)cc2OC)CC1,IRF Lucia reporter activity,RAW-Dual [2]; [5],0.0338
C=CS(=O)(=O)NC1CCN(C(=O)CNc2cc(I)c(Cl)cc2OC)CC1 (library stock concentration (final ~1000-fold dilution): 10 mM),IRF Lucia reporter activity,RAW-Dual [1]; [4],0.0197
same,IRF Lucia reporter activity,RAW-Dual [1]; agonist: LPS (TLR4) 0.1 ug/mL,0.0467
COc1cc([C@H]2OC[C@H]3[C@@H]2CO[C@H]3c2ccc(OC)c(OC)c2)ccc1O (library stock concentration (final ~1000-fold dilution): 10 mM),IRF Lucia reporter activity,RAW-Dual [1]; [4],0.946
same,IRF Lucia reporter activity,RAW-Dual [1]; agonist: LPS (TLR4) 0.1 ug/mL,1.03
O=C(CCCS)NC1CCN(C(=O)COc2ccc(Cl)cc2Cl)CC1,IRF Lucia reporter activity,RAW-Dual [2]; [5],0.86
O=C(CCCS)NC1CCN(C(=O)COc2ccc(Cl)cc2Cl)CC1 (library stock concentration (final ~1000-fold dilution): 10 mM),IRF Lucia reporter activity,RAW-Dual [1]; [4],0.63
same,IRF Lucia reporter activity,RAW-Dual [1]; agonist: LPS (TLR4) 0.1 ug/mL,1.02
CCOC(=O)C(CCc1ccccc1)NC(C)C(=O)N1C(C(=O)O)CC2CCCCC21 (stereo not drawn) (library stock concentration (final ~1000-fold dilution): 10 mM),IRF Lucia reporter activity,RAW-Dual [1]; [4],1.01
same,IRF Lucia reporter activity,RAW-Dual [1]; agonist: LPS (TLR4) 0.1 ug/mL,0.936
CCOC(=O)C(CCc1ccccc1)NC(C)C(=O)N1C(C(=O)O)CC2CCCCC21 (stereo not drawn),IRF Lucia reporter activity,RAW-Dual [2]; [5],1.16
CC(C)CC(CC(=O)NO)C(=O)NC(Cc1ccc2ccccc2c1)C(=O)NC(C)C(=O)NCCN (stereo not drawn),IRF Lucia reporter activity,RAW-Dual [2]; [5],1.03
CC(C)CC(CC(=O)NO)C(=O)NC(Cc1ccc2ccccc2c1)C(=O)NC(C)C(=O)NCCN (stereo not drawn) (library stock concentration (final ~1000-fold dilution): 10 mM),IRF Lucia reporter activity,RAW-Dual [1]; [4],0.9
same,IRF Lucia reporter activity,RAW-Dual [1]; agonist: LPS (TLR4) 0.1 ug/mL,0.975
O=P(O)(O)OC(CO)CO,IRF Lucia reporter activity,"RAW-Dual [2]; library stock concentration (final ~1000-fold dilution): 10 mM water, cytotoxicity flag (confluency mask): not cytotoxic",1.42
O=P(O)(O)OC(CO)CO (library stock concentration (final ~1000-fold dilution): 10 mM water),IRF Lucia reporter activity,RAW-Dual [1]; [4],1.35
same,IRF Lucia reporter activity,RAW-Dual [1]; agonist: LPS (TLR4) 0.1 ug/mL,0.743
Cc1ccc(O)c(C(CCN(C(C)C)C(C)C)c2ccccc2)c1.O=C(O)C(O)C(O)C(=O)O (stereo not drawn),IRF Lucia reporter activity,RAW-Dual [2]; [5],1.05
Cc1ccc(O)c(C(CCN(C(C)C)C(C)C)c2ccccc2)c1.O=C(O)C(O)C(O)C(=O)O (stereo not drawn) (library stock concentration (final ~1000-fold dilution): 10 mM),IRF Lucia reporter activity,RAW-Dual [1]; [4],0.408
same,IRF Lucia reporter activity,RAW-Dual [1]; agonist: LPS (TLR4) 0.1 ug/mL,1.23
